# Reference: publication PMC4336329 (PLoS ONE, 2015)
# About 14,000 (4.5%) of roughly 310,000 compounds showed an effect of 50% or more. The effect is printed as a negative number. The list shows a part of the results.
# Target: human ether-à-go-go-related gene (hERG) potassium channel (human, UniProt Q12809)
# Test: primary screen, population patch clamp on CHO cells stably expressing hERG
# 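Also: peak tail current of the secondary pulse compared with the same well before compound.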
# Sequence of human ether-à-go-go-related gene (hERG) potassium channel (Q12809 whole entry, looked up): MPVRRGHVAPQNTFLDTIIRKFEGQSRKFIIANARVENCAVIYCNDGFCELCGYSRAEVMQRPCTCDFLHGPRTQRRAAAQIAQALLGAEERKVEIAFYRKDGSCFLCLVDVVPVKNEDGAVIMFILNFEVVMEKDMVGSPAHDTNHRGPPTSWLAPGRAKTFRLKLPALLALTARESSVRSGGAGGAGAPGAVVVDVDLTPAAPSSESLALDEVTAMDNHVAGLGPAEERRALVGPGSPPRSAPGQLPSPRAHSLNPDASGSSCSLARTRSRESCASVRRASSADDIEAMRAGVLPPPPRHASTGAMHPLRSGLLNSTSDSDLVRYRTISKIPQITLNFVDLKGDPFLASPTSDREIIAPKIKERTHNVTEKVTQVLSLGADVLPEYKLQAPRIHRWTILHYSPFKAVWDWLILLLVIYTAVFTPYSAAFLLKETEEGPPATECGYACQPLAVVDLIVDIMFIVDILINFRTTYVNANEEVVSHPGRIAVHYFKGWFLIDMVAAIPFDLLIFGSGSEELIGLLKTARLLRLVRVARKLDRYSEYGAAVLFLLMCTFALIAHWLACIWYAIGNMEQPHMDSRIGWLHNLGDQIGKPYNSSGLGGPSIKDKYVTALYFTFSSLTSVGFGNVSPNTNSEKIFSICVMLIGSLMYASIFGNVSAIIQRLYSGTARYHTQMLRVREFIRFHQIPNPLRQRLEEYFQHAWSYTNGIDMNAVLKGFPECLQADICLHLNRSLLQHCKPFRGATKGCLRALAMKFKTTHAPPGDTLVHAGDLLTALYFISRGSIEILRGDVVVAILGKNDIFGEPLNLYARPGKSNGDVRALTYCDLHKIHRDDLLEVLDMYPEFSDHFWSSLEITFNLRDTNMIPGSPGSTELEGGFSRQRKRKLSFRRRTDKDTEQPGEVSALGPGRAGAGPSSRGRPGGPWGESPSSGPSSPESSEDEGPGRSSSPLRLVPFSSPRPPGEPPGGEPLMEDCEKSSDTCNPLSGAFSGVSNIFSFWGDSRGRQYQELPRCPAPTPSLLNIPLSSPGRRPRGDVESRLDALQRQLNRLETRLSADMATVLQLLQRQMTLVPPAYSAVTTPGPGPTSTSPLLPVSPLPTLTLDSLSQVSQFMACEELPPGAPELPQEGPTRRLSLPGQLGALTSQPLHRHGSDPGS
row,SMILES,"hERG current change (%, negative = inhibition) at 10uM"
1,Cc1ccc(C(=O)O)cc1NC(=S)NC(=O)c1ccc([N+](=O)[O-])cc1Cl,10.1%
2,COc1ccc(CNC(=O)C(=O)c2cn(CC(=O)N3CCOCC3)c3ccccc23)cc1,2.82%
3,CCN(CC)c1nc2ccccc2c(N)c1-c1ccccc1.O=C(O)C(=O)O,-77%
4,COc1ccc(CCNC(=O)CN(c2cc([N+](=O)[O-])ccc2OC)S(C)(=O)=O)cc1OC,7.46%
5,Cc1ccc(Cl)cc1N1CCN(C(=O)C2CCC(=O)N(C3CCCCCC3)C2)CC1 (stereo not shown),-45.6%
6,CCc1c(C)nc(Nc2nc(C)c3ccc(OC)cc3n2)[nH]c1=O,8.18%
7,COc1ccccc1N1CCN(C(=O)c2ccc(-c3ccccc3)cc2)CC1,-5.25%
8,Cc1cc(C)cc(C(=O)NC(CC(N)=O)c2ccc(NC3CCCC3)c([N+](=O)[O-])c2)c1 (stereo not shown),13.2%
9,Cc1cc(C)cc(N(CC(=O)NCc2cccnc2)S(C)(=O)=O)c1,-1.95%
10,CCc1ccc(S(=O)(=O)N2CCN(C(=O)c3cccnc3)CC2)cc1,-10.5%
11,COC(=O)Cc1cc(=O)n2[nH]c(SC)nc2n1,9.22%
12,CCn1cc(CNC(=O)C2C3CCC(C3)C2C(=O)O)cn1 (stereo not shown),14.4%
13,C=CCn1c(SCc2nc3ccccc3c(=O)[nH]2)nc2sc3c(c2c1=O)CCCC3,2.93%
14,CCn1c(C)nc2cc(C(=O)NNC(=O)Nc3ccc(Cl)c(Cl)c3)ccc21,20.2%
15,Cc1ccc(-n2c(C)nn(CCOc3ccccc3)c2=O)cc1,1.54%
16,O=C(NCC12CC3CC(CC(C3)C1)C2)c1nn2c(c1Cl)NC(c1ccco1)CC2C(F)(F)F (stereo not shown),8.61%
17,O=C(c1cccc(C(F)(F)F)c1)N1CCN(C2CCCCC2)CC1,-27.1%
18,CN(c1ccccc1)S(=O)(=O)c1ccc(Cl)c(C(=O)Nc2ccc(-c3nc4ccccc4[nH]3)cc2)c1,11.7%
19,CN(C)c1cccc(C(=O)OCC(=O)NCC2CCCO2)c1 (stereo not shown),6.36%
20,O=C(NCc1ccco1)/C(=C\C=C\c1ccccc1)NC(=O)c1ccco1,-38.3%
21,Cc1ccc(CNC(=O)C(=O)NCC2OCCN2S(=O)(=O)c2ccc(C)cc2)cc1 (stereo not shown),22.1%
22,O=C(Nc1ccccn1)c1ccc(Cl)c(S(=O)(=O)N2CCc3ccccc32)c1,-10%

row,SMILES,"hERG current change (%, negative = inhibition) at 10uM"
1,Cn1c(CNc2ccccc2O)nc2ccccc21,-2.8%
2,Cc1ccc(Cn2c(SCC(=O)N(C)C3CCS(=O)(=O)C3)nc3ccccc3c2=O)cc1 (stereo not shown),-60.8%
3,CCn1c(SCC(=O)Nc2ccc(F)cc2)nnc1C1CC1,-0.652%
4,O=C(Nc1cccc(-c2cnc3ccccc3n2)c1)c1cccc(NC(=O)c2ccco2)c1,7.85%
5,O=C(CCCN1C(=O)/C(=C/c2cccs2)SC1=S)Nc1ccc(O)cc1,14.5%
6,CCn1c(SCC(=O)Nc2ncc(C(F)(F)F)cc2Cl)nnc1-c1ccccc1,-12.6%
7,CC(=O)c1cccc(NC(=O)CCCSc2ccccc2)c1,-17%
8,CC(=O)N1CCN(c2ccc([N+](=O)[O-])c(NCC3CCCO3)c2)CC1 (stereo not shown),-18.3%
9,Cc1ccc(OCc2nnc(SCC(=O)NCc3ccco3)n2C)cc1,-21.5%
10,Nc1cccn2c(-c3ccc(Cl)cc3)cnc12,7.91%
11,CCOC(=O)c1ccc(N2C(=O)CC(SCC(N)C(=O)OCC)C2=O)cc1 (stereo not shown),-13.4%
12,C=CCn1c(COc2ccccc2F)nnc1SCC(=O)NC(=O)NCc1ccco1,-0.537%
13,CC1(C)CC2CC(C)(CN2C(=O)Cc2ccccc2)C1 (stereo not shown),4.36%
14,CCOc1ccc(C(=O)N2CCN(c3ccccc3)CC2)cc1,-36.3%
15,Cc1ccc(-c2nnn(CC(=O)N(CC(=O)NC3CCCCC3)c3ccc(F)c(Cl)c3)n2)o1,10.2%
16,COc1ccc(OC)c(NC(=O)CCN2CCCCC2)c1,7.47%
17,O=[N+]([O-])c1ccccc1S(=O)(=O)N1CCN(C2CCCC2)CC1,0.58%
18,COc1ccc(C(=O)CSc2nnc(-c3ccccc3)o2)cc1,6.76%
19,COc1ccc(-c2cc(C(F)(F)F)c(C#N)c(SCC(=O)Nc3nc(C)co3)n2)cc1,1.46%
20,COc1cccc(-c2nc(CCl)cs2)c1.Cl,0.958%
21,CC1(C)CC(=O)C(C=NCCN2CCN(C(=S)Nc3cccc(Cl)c3)CC2)=C(O)C1,-66.3%
